Data from patent US20190389958A1, “ANTI-CXCR4 ANTIBODIES” (MSM Protein Technologies, Inc., priority 2017, published 2019).

How the values were obtained:
RA1 cells [1] = assay: Antibody-dependent cell-mediated cytotoxicity (ADCC), LDH release (Example 10); assay type: cell-based, human; conditions: E:T ratio 20:1
Procedure: ADCC was measured with RA1 cells as the target cells (T) and using the CytoTox 96® Non-Radioactive Cytotoxicity Assay (Promega Corp., Fitchburg, Wis.)), which assay measures lactate dehydrogenase (LDH) release. A round-bottom 96-well culture plate was set up with the following control and experimental wells (100 microliter final volumes):
a. RA1 cells (for target cell spontaneous LDH release control) b. RA1 cells (for target cell maximum LDH release control) c. Culture medium (RPMI 1640 Medium (1X) without phenol red) used for volume correction control d. Culture medium (for culture medium background control) e. RA1 plus effector cells (E) (for target plus effector cell spontaneous LDH release control) f. Experimental wells with effector and target cells (10^5) with serial dilutions of each test IgG or without test IgG.
The plates were centrifuged at 1600 rpm for 2 minutes and incubated at 37° C. for 4 hours. One hour prior to supernatant harvest, 20 microliters of Lysis Solution (10×) were added to the conditions b) and c). The plates were centrifuged at 1600 rpm for 2 minutes, and 50 microliters of the supernatant from each well of the assay plates were transferred to corresponding wells of a flat-bottom 96-well enzymatic assay plate. Substrate Mix (50 microliters) was added to each well of the latter plate, and the plate (protected from light) was incubated for 30 minutes at room temperature. Finally, 50 microliters of Stop Solution were added to each well, and absorbance (OD values) was measured at 490 nm. Each condition was tested in triplicates.
Preliminary experiments had been conducted in order to determine the optimal E:T ratio. The data shown below were obtained at a 20:1 E:T ratio with 10^5 RA1 target cells. The effector cells used in this study were prepared as follows: human peripheral blood mononuclear cells (PBMCs) obtained from a healthy donor were isolated by means of density gradient centrifugation using Lymphocyte Separation Medium (ref. J15-004, Invitrogen Corp., Carlsbad, Calif.). PBMCs at 2×10^6 per mL were cultured for two days in RPMI 1640 with 10% FCS, penicillin/streptomycin and 100 units per mL of human recombinant IL-2 (obtained from Roussel-Uclaf) in a 37° C. humidified incubator (5% CO2).
ADCC percentages obtained at different concentrations of test IgGs were calculated with the formula % ADCC=(f−e)/(b−a)×100, i.e., % ADCC=(OD of Target+Effector cells +/−Test Mab −OD of Spontaneous Release of Target+Effector cells)/(OD Maximal Release Target cells −OD Spontaneous Release of Target cells)×100.

RA1 cells [2] = assay: Anti-tumor activity in a SCID/RA1 xenograft model of Burkitt's lymphoma (Example 11); assay type: in vivo, SCID mice; conditions: for Mean Survival / Median Survival / Mice alive at the end of the study = day 81 / % Increased life span: 10 mg/kg, IV, Q4D × 6; for % Increased life span: ILS % = [(T-C)/C]×100 of median survival; for increase in survival rate in comparison with control mice: repeated treatment, p<0.001
Procedure: The therapeutic effect of test antibodies was evaluated in an animal model of Burkitt's lymphoma. In the model used, systemic cancer in SCID mice causes hind limb paralysis and infiltrates all major organs.
Forty-eight hours before tumor cell injection, female SCID mice (7-9 weeks old, weighing 17-22 g) were irradiated with a γ-source (1.8 Gy, ^60Co). […] The tumor bearing mice were distributed on D4 into 10 groups of 10 mice each based on body weight using Vivo Manager® software (Biosystemes, Dijon, France). […] Treatment started on D4: mice were administered intravenously a 5 mg/kg or a 10 mg/kg dose of test antibody on days 4, 8, 12, 16, 20 and 24. The vehicle for injection was 10 mM Na-Citrate, 150 mM NaCl, 50 mM Arginine (pH 5.5). Body weights were measured and recorded twice weekly. Mean survival time was calculated for each group as the mean of the day of death, and median survival time was calculated for each group as the median of the day of death. The efficacy of each test antibody was judged by the increased life span value (ILS). ILS % was expressed as follows: ILS %=[(T-C)/C]×100. T was the median of the survival times of animals treated with each test antibody, and C was the median survival time of control animals treated with vehicle.

hCXCR4 = molecular target: T1, hCXCR4 (Homo sapiens, UniProt P61073); assay: Specificity for CXCR4, flow cytometry on lines transfected to over-express CXCR4 (Example 6); assay type: binding; conditions: test IgG at 100 nM
T1 construct: expressed in transfected cells; host or cells: R1610, Cf2Th, CHO
T1 sequence (P61073 whole entry): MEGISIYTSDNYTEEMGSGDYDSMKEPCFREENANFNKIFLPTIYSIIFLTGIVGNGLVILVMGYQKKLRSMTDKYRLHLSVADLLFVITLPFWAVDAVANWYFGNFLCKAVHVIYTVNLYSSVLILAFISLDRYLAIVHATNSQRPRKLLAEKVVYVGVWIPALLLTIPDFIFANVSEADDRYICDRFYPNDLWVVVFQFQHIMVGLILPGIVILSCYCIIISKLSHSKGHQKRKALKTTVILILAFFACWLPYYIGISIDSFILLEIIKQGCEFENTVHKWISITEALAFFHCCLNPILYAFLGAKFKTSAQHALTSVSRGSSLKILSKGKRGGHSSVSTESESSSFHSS
Procedure: Cells over-expressing different GPCRs other than CXCR4 and several lines transfected to over-express CXCR4 (R1610-hCXCR4, Cf2Th-hCXCR4 and CHO-hCXCR4) were compared. Cultures were incubated with a test IgG at 100 nM in FACS buffer for 40 min at 4° C. Thereafter, cells were washed twice, stained with anti-human-Fc antibody-PE conjugate (Jackson Immunoresearch Laboratories Inc., West Grove, Pa.), washed twice in FACS buffer and then transferred to FIX buffer. Fluorescence intensities were measured by GUAVA PCA-96 at 425V (in triplicate).
The expression of GPCRs other than CXCR4 was confirmed using commercially available antibodies (positive controls). For example, a commercial anti-CXCR1 antibody was used as a positive control for confirming the expression of CXCR1 on the CXCR1-transfected CHO cells.

B1: V62.1: anti-CXCR4 antibody from Fab phage library; LCVR SEQ ID NO 13, HCVR SEQ ID NO 15 (antibody, V domains shown)
VH: [no letters for about 100 residues]QGKTRVYGYRWHGYGSTHALDYWGQGTLVTVSS
VL: EIVLTQSPGTLSLSPGERATLSCRASQSVSSSYLAWYQQKPGQAPRLLIYGASSRATGIPDRFSGSGSGTDFTLTISRLEPEDFAVYYCQQSDYSYPFTFGQGTKVEIKRT
modifications: heavy chain variable region HCVR, variant 1; light chain variable region LCVR, variant 1
RA1 cells [1]; 0.0001 μg/mL
  ADCC percentage: 8%
RA1 cells [1]; 0.001 μg/mL
  ADCC percentage: 28%
RA1 cells [1]; 0.01 μg/mL
  ADCC percentage: 45%
RA1 cells [1]; 0.1 μg/mL
  ADCC percentage: 44%
RA1 cells [1]; 1 μg/mL
  ADCC percentage: 45%
RA1 cells [2]
  Mean Survival: 61 days
  Median Survival: 61 days
  Mice alive at the end of the study = day 81: 0/10
  % Increased life span: 126%
  increase in survival rate in comparison with control mice: 2 fold
hCXCR4; cell line CHO-hCXCR4
  MFI: 2053
hCXCR4; cell line R1610-hCXCR4
  MFI: 812

B2: V62.1-R108H: matured anti-CXCR4 antibody, point mutation R108H in CDR3H; LCVR SEQ ID NO 13, HCVR SEQ ID NO 16 (antibody, V domains shown)
VH: [no letters for about 100 residues]QGKTRVYGYHWHGYGSTHALDYWGQGTLVTVSS
VL: B1 VL
modifications: heavy chain variable region HCVR, variant 2; light chain variable region LCVR, variant 1
RA1 cells [1]; 0.0001 μg/mL
  ADCC percentage: 8%
RA1 cells [1]; 0.001 μg/mL
  ADCC percentage: 15%
RA1 cells [1]; 0.01 μg/mL
  ADCC percentage: 23%
RA1 cells [1]; 0.1 μg/mL
  ADCC percentage: 57%
RA1 cells [1]; 1 μg/mL
  ADCC percentage: 59%
RA1 cells [2]
  Mean Survival: 60 days
  Median Survival: 59 days
  Mice alive at the end of the study = day 81: 1/10
  % Increased life span: 119%
  increase in survival rate in comparison with control mice: 2 fold
hCXCR4; cell line CHO-hCXCR4
  MFI: 1850
hCXCR4; cell line R1610-hCXCR4
  MFI: 513
